# PubChem BioAssay AID445 (National Center for Advancing Translational Sciences (NCATS), 2006)
# Screen size: about 110,000 compounds; about 40 (0.04%) were called active. Inconclusive results, whose numbers are uncertain, are shown with a selection of clear calls. Calls follow the shape of the dose curve; as a rule, active = well fitted curve in the direction sought with a large enough effect in the signal ratio (not every such curve was filed as active); inconclusive = small, poorly fitted or top-dose-only effect, or a change in a side signal; inactive = flat fitted curve, though single readings scatter; the % refers to the signal ratio. A potency beside an inconclusive call is a rough fit, not a confirmed value.
# Test: IkB Signaling;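 as to IkBa stabilization activation: 0% = basal untreated cells and 100% = reference inhibitor full response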
# Conditions: ABC-DLBCL IkBa-CBG/CBR dual luciferase ratio (green luciferase fused to IkBa over red control in OCI-Ly3 lymphoma cells), 4 h; IkBa stabilization activation: at 57.1 µM (top of the series), scaled: untreated 0%, proteasome inhibitor 100% unless noted
# How it was run: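 Curves were fitted separately to fusion (green), unfused (red) and ratio luminescence, then classed by r2, magnitude and activity. Cells: OCI-Ly3, 4 h compound plus doxycycline at 37C; 10 uM MG-132 defined full response.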
# Potency is read from the fitted curve at half-maximal effect.
SMILES,IkBa stabilization activation,Potency
Cc1csc(SCc2nc3sc4c(c3c(=O)[nH]2)CCC4)n1,inactive,
Cc1cccc(OCc2nc(-c3nonc3N)no2)c1C,inactive,
Cc1ccc(-n2nc3c(N4CCCC(C(=O)NCCc5ccccc5)C4)nnc(C)c3c2C)cc1 (stereo unspecified),inconclusive: -1.5% [signal inhibitor],
COc1cccc(C(=O)Nc2c(C(=O)NC(C)(C)C)oc3ccccc23)c1,inactive,
Cc1ccc(CCNC(=O)Cn2c(-c3cccs3)cc3cc(F)ccc32)cc1,inconclusive: 6.1% [signal inhibitor],
CCc1cccc2sc(N3CCN(C(=O)c4cc5ccccc5cc4OC)CC3)nc12,inconclusive: -1.6% [signal inhibitor],
N#CC1=C(N)Oc2cc3c(cc2C1c1ccc(Cl)cc1)OCO3 (stereo unspecified),inconclusive: 5.03% [signal inhibitor],
COc1ccc(CC(=O)NCc2ccc3c(c2)CCN3C(=O)c2ccc(C)cc2)cc1OC,inconclusive: -1.79% [signal inhibitor],
COc1ccc(CNC(=O)c2ccc(-c3nc(CSc4ccccc4)c(C)o3)cc2)c(OC)c1,inconclusive: 0.387% [signal inhibitor],
Cc1cc(NC(=O)CSc2nc3ccccc3c(=O)n2C2CCCC2)no1,inactive,
COc1ccc(CCN2C(=O)N(c3ccccc3)C(=O)C2CC(=O)Nc2ccccc2)cc1 (stereo unspecified),inconclusive: 1.69% [signal inhibitor],
CCCN1C(=O)C2(c3ccccc31)c1c(oc3ccc(C)cc3c1=O)C(=O)N2CCOC (stereo unspecified),inactive,
N#Cc1cccc(-c2cc(NCc3cccnc3)ncn2)c1,"inactive: -0.442% [at 11.4 µM, scaled: untreated 0%, proteasome inhibitor 100%]",
Cc1nc(N2CCOCC2)c2c(C(=O)N3CCN(c4cccc(C)c4C)CC3)c(C)oc2n1,inconclusive: -0.817% [signal inhibitor],
COc1ccc(Nc2cc(C(=O)NCc3ccccc3)c3ccccc3n2)c(OC)c1,inconclusive: -4.25% [signal inhibitor],
Cc1oc2ccc(O)c(CN3CCCC3)c2c1C(=O)Nc1cccc(Cl)c1C,inactive,
Cc1cccc(NC(=O)CSc2nc3c(oc4ccccc43)c(=O)n2-c2ccc(F)cc2)c1,inactive,
COc1ccc2c(CNCCc3ccccc3)c(C(=O)O)n(Cc3cccc(F)c3)c2c1,inconclusive: -0.942% [signal inhibitor],
COc1ccc(-c2noc(-c3cccc(OC)c3OC)n2)cc1,inconclusive: 2.43% [signal inhibitor],
CCN(CC)S(=O)(=O)c1ccc2oc(C(=O)Nc3ccc(OC)cc3OC)c(C)c2c1,inconclusive: 9.46% [signal activator],
Cc1cc(N2CCN(C(=O)c3ccco3)CC2)n2nc(-c3cccc(Cl)c3)cc2n1,inactive,
COc1ccc(N(Cc2cccs2)C(=O)COc2cc(C)c(Cl)c(C)c2)cc1,inconclusive: 1.84% [signal inhibitor],
Cc1cccc(NC(=O)Cc2ccc(-n3c(C)nc4cccnc43)cc2)c1C,inconclusive: 1.74% [signal inhibitor],

SMILES,IkBa stabilization activation,Potency
COc1ccc(-c2nnc(-c3ccc(N)cc3)o2)cc1,inactive,
CC(=O)n1c(COS(C)(=O)=O)nc2ccccc21,"inactive: -0.756% [at 11.4 µM, scaled: untreated 0%, proteasome inhibitor 100%]",
Cc1cc(-c2ccc(S(=O)(=O)Nc3ccc(Br)c(C)c3)s2)on1,inconclusive: 17.8% [signal inhibitor],
CCOC(=O)C1CCN(C(=O)c2oc3ccc(S(=O)(=O)N4CC(C)CC(C)C4)cc3c2C)CC1 (stereo unspecified),inconclusive: 9.38% [signal inhibitor],
CCC(CC)COC(=O)C(C#N)c1nc2ccccc2nc1N1CCOCC1 (stereo unspecified),inactive,
Cc1ccc2c(c1)-c1c(cnn1CC(=O)N1CCN(c3cc(Cl)ccc3C)CC1)CO2,inconclusive: 3.12% [signal inhibitor],
CC(C)C(NS(=O)(=O)c1cccc2cccnc12)C(=O)Nc1ccc(OC(F)(F)F)cc1 (stereo unspecified),inconclusive: 0.452% [signal inhibitor],
Cc1ccc(C)c(NC(=O)NCc2ccc3c(c2)CCN3C(=O)c2ccccc2)c1,,"inconclusive: 39.8 µM [rising, single point]"
COc1ccc(S(=O)(=O)NCc2ccc(C(=O)NCc3ccccc3)cc2)cc1,inconclusive: -2.38% [signal inhibitor],
COC(=O)/C=c1\sc2ncnn2c1=O,inactive,
COc1ccc(C)cc1-n1c(-c2ccc(C)cc2)cc2c1CC(C)(C)CC2=O,inactive,
O=C(Cn1c2ncccc2c(=O)n1-c1ccccc1)Nc1ccc(Cl)cc1C(F)(F)F,inactive,
COCc1cc(C)nc2sc3c(c12)NC(c1ccc(O)cc1)N(c1ccc(C)cc1)C3=O (stereo unspecified),inconclusive: -0.152% [signal inhibitor],
CCN(C(=O)c1cn(-c2ccc(OC)cc2)c(=O)c2ccccc12)c1cccc(Cl)c1,inconclusive: 1.32% [signal inhibitor],
c1ccc2nc3c(nc2c1)c1ccccc1n3CCN1CCOCC1,inactive,
CN(C(=O)c1cccc(N2C(=O)C3CC=CCC3C2=O)c1)C1CCCCC1 (stereo unspecified),inactive,
Cc1cccc(C(=O)Nc2ccc3oc(-c4ccncc4)nc3c2)c1,inconclusive: 12.6% [signal inhibitor],
CCc1ccccc1NC(=O)c1sc(-n2nc(C)c(Cc3ccc4c(c3)OCO4)c2C)nc1C,inactive,
CCOC(=O)C1CCCN(S(=O)(=O)c2ccc3[nH]c(=O)oc3c2)C1 (stereo unspecified),inconclusive: 0.587% [signal inhibitor],
O=C(Nc1ccc(CN2CCOCC2)cc1)c1ccc(-c2ccc(Br)cc2)o1,inconclusive: -2.56% [signal inhibitor],
COc1cccc(CN2C(=O)CN(C3CCCCC3)C(=O)C2c2ccc(OC)c(OC)c2)c1 (stereo unspecified),inactive,
COC(=O)c1ccc(NC(=O)CCn2c(=O)oc3ccccc32)cc1,inactive,
CCC(C)Sc1c(C(C)C)cnc2c1c(=O)n(C)c(=O)n2C (stereo unspecified),inconclusive: -0.451% [signal inhibitor],
